Assay results published in PubChem BioAssay AID651791 (National Center for Advancing Translational Sciences (NCATS), 2012).
The inconclusive results got no clear call from the source; some entries with a clear call stand among them for comparison. Potencies of inconclusive entries are left out as doubtful fits. The source made the active and inactive calls. Calls come from the whole dose curve; as a rule, active = well fitted inhibition curve with a large enough effect; inconclusive = small, poorly fitted or top-dose-only effect; inactive = no such curve, though single readings can be large or run the other way.

Experiment: InCell qHTS Assay for Inhibitors of the mTORC1 Signaling Pathway in MEF (Tsc2-/-, p53-/-) Cells: Hit Validation;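 note: phospho-S6 Ser235/236 signal normalized to propidium iodide cell count per well; nearly all actives have a fitted effect of over 75% in size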
Conditions: phospho-rpS6 immunofluorescence, 24 h
Potency is the fitted concentration of half-maximal effect; tags give direction and shape of the fitted curve.

Row | Structure (SMILES) | Potency
1 | Cc1ccc(C(=O)Nc2c(C(=O)NCc3ccc(Cl)cc3)sc3nc(C)cc(C)c23)cc1 | inconclusive [inhibitor, single point]
2 | CCC(C)S(=O)(=O)c1oc(-c2cccs2)nc1S(=O)(=O)c1ccccc1 (configuration not stated) | active: 1.17 µM
3 | Oc1ccc(NCc2ccc(OCc3ccccc3)cc2)cc1 | inconclusive [inhibitor, single point]
4 | CC(=O)C1=C(c2ccc(Cl)c(Cl)c2)N(C(C)=O)n2cnnc2S1 | inconclusive [inhibitor, single point]
5 | CCn1c(=N)n(CCOc2ccc(Br)cc2)c2ccccc21 | active: 14.7 µM
6 | COc1ccc(CNCCC(c2ccc3c(c2)OCO3)c2ccccc2OC)cc1 (configuration not stated) | inconclusive [inhibitor, single point]
7 | CCN1CCOC(=O)C1CC(=O)Nc1cc(C)ccc1OC (configuration not stated) | active: 13.1 µM
